Measured values published in publication PMC4336329 (PLoS ONE, 2015).
The campaign covered roughly 310,000 compounds. About 14,000 (4.5%) showed an effect of 50% or more. The effect is printed as a negative number. The list shows a part of the results.

target: human ether-à-go-go-related gene (hERG) potassium channel (human, UniProt Q12809); test: primary screen, population patch clamp on CHO cells stably expressing hERG
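Also: peak tail current of the secondary pulse compared with the same well before compound.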

Sequence of human ether-à-go-go-related gene (hERG) potassium channel (Q12809 whole entry, looked up): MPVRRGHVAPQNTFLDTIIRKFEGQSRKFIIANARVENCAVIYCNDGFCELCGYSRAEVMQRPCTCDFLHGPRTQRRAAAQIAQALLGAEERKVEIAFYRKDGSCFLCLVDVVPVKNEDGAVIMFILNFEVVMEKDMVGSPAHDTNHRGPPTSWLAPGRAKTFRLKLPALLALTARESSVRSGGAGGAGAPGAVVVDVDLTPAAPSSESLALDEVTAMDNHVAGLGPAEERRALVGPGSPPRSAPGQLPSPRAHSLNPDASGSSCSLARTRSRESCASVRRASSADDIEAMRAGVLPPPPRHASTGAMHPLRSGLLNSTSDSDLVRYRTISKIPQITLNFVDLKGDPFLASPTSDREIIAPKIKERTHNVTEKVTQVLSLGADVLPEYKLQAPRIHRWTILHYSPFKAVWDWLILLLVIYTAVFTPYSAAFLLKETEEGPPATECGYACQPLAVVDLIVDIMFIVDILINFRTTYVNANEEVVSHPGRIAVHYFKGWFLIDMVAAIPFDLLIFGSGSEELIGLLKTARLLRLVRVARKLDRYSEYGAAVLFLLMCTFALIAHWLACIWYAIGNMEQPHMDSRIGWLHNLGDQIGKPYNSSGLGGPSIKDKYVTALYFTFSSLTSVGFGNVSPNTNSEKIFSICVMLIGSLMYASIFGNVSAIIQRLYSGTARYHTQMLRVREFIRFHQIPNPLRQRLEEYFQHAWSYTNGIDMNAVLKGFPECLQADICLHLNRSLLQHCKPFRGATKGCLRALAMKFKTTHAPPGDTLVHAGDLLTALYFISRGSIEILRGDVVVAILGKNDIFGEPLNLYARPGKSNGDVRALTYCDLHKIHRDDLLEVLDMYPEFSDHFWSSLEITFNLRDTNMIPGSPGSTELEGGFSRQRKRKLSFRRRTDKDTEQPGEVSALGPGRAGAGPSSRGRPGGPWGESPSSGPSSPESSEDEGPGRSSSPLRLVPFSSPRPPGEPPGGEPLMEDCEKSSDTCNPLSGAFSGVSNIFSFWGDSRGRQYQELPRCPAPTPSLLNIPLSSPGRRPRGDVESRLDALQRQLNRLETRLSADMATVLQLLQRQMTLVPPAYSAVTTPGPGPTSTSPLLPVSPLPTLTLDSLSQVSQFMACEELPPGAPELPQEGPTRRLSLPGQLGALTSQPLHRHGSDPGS

Row | Structure (SMILES) | hERG current change (%, negative = inhibition) at 10uM [%]
1 | CN(C(=S)NC1=CCS(=O)(=O)C1)C1CCCCC1 | 0.959
2 | O=C([O-])CCCNC(=O)C(c1ccccc1)c1ccccc1.[Li+] | -22.1
3 | Cc1c(OC(C)C(=O)O)ccc2c(-c3ccccc3)cc(=O)oc12 (stereo not shown) | 18.3
4 | O=C(COc1ccc(Cl)cc1)N(Cc1cccs1)C1CCS(=O)(=O)C1 (stereo not shown) | -48.1
5 | COc1ccccc1-c1cc2nc(C)c(CCC(=O)NCc3ccc(F)cc3)c(C)n2n1 | -49.7
6 | COc1cccc(C(=O)NCC(=O)N2CCC3(CC2)NCCc2[nH]cnc23)c1OC | 19
7 | COc1ccc2c(-c3cccnc3)cc(=O)[nH]c2c1 | -3.74
8 | COC(=O)C1=C(c2ccc(OC(F)(F)F)cc2)C[C@@H]2CC[C@H]1N2C(=O)NCCc1ccccc1 | -23.2
9 | CN(c1ccccc1C(=O)Nc1cccc(C(F)(F)F)c1)S(C)(=O)=O | -2.04
10 | COc1ccccc1NC(=O)Nc1nc(CC(=O)Nc2cc(F)ccc2F)cs1 | -2.13
11 | COc1ccc(Cn2c(=O)[nH]c3cc(OC)c(OC)cc3c2=O)cc1 | 7.17
12 | Cc1nnc(NC(=O)C(C)Sc2nnc(-c3ccco3)n2C(C)C)s1 (stereo not shown) | 15.5
13 | Cc1ccc(C(=O)COC(=O)CCCC(=O)Nc2cc(C(F)(F)F)ccc2Cl)cc1C | 24.7
14 | CC1CCCCN1CCCNC(=O)c1ccc2nc(N3CCCCC3)sc2c1 (stereo not shown) | -22.8
15 | NC(=O)c1sc2nnc(-c3ccccc3)c(-c3ccccc3)c2c1N | 10.2
16 | CCCn1nnnc1NCc1ccc(F)cc1 | 7.59
17 | CCCCc1ccc(NC(=O)C(=O)NCCN2CCN(C(=O)c3ccc([N+](=O)[O-])cc3)CC2)cc1 | -22.4
18 | CCOC(=O)c1ccccc1NC(=O)Cn1c(=O)n(Cc2ccccc2)c(=O)c2c(C)c(C)sc21 | 1.6
19 | O=C(CSc1ccc2nnc(-c3cccs3)n2n1)N1CCCC1 | -43.4
20 | CCCNC(=O)N1[C@H]2CC[C@@H]1C(C(=O)OC)=C(c1ccc(OC)c(OC)c1)C2 | -1.93
21 | Cc1ccc(C(=O)CCC(=O)NC2=NCCS2)cc1 | 4.77
22 | CNC(=O)C1CC(=O)N(Cc2ccc3c(c2)OCO3)C(=Nc2ccc(OC)cc2)S1 (stereo not shown) | 9.5

Row | Structure (SMILES) | hERG current change (%, negative = inhibition) at 10uM [%]
23 | O=c1sc2ccccc2n1CCOc1ccccc1 | -6.66
24 | COCCCN(CCC#N)C(=O)c1c(-c2c(Cl)cccc2Cl)noc1C | 11.7
25 | COc1ccccc1NC(=O)Nc1ccc(-n2ccc(C(F)(F)F)n2)cc1 | -4.83
26 | CC(NC(=O)CCc1nc2cc(S(=O)(=O)N3CCOCC3)ccc2n1C)c1ccc(S(N)(=O)=O)cc1 (stereo not shown) | -57.9
27 | CC1CCN(C(=O)CN(c2ccccc2)S(=O)(=O)N(C)C)CC1 | 14.2
28 | CCOC(=O)c1c(CC(C)C)csc1NC(=O)COC(=O)C1=NNC(=O)CC1 | 10.7
29 | CS(=O)(=O)N(CC(=O)Nc1ccccc1C(=O)N1CCOCC1)c1ccc2c(c1)OCO2 | 12
30 | Fc1ccc(Nc2nc3ccccc3s2)cc1 | 20.3
31 | CCCCNc1ccncc1S(=O)(=O)NC(=O)NC(C)C.O=[N+]([O-])O | 8.21
32 | CCn1c(=O)cc(SCC(=O)Nc2cccnc2)c2ccccc21 | -12.8
33 | Cn1c(=O)c2c(nc(Br)n2CC(=O)c2cccs2)n(C)c1=O | -6.03
34 | O=C1C=C(c2ccc(Oc3ccccc3)cc2)C[C@@H](c2ccc(F)cc2)C1 | 11.4
35 | COc1ccc(C(=O)NCCCn2ccnc2)cc1.Cl | -5.63
36 | NC(=O)CSc1nnc(Cn2c(=O)sc3ccccc32)n1CCc1ccccc1 | -5.68
37 | O=C(O)CN1C(=O)C2(OCCO2)c2cc(Br)ccc21 | 11.2
38 | Cl.Clc1ccc(COc2ccccc2CNCc2cccnc2)cc1 | -31.1
39 | Cc1ccc(NC(=O)C2CCC(=O)N2C(=O)OCc2ccccc2)cc1 (stereo not shown) | -23.5
40 | C[C@@H](C(=O)Nc1nc(-c2ccccn2)cs1)N1C(=O)C2CCCCC2C1=O (stereo partly shown) | 8.05
41 | CCC(CC)c1nnc(NC(=O)C23CC4CC(CC(NC(C)=O)(C4)C2)C3)s1 | -9.08
42 | Cc1cccc(C)c1NC(=O)C(NS(=O)(=O)c1cccs1)c1ccccc1 (stereo not shown) | 2.73
43 | Cc1nc2sc(C(c3ccc(Cl)cc3)N3CCN(c4ccccc4F)CC3)c(O)n2n1 (stereo not shown) | -48.6
44 | CC(C)Cn1c(N)c(C(=O)COC(=O)c2ccc3c(c2)OCCO3)c(=O)n(C)c1=O | -34.6

Row | Structure (SMILES) | hERG current change (%, negative = inhibition) at 10uM [%]
45 | Cc1cc2nccc(-c3ccco3)n2n1 | 3.22
46 | Cc1ccc(N(C(C)C(=O)N2CCCC2)S(C)(=O)=O)cc1 (stereo not shown) | 14
47 | O=C(CSc1n[nH]c(=O)n1Cc1ccco1)Nc1ccccc1 | 1.99
48 | O=C(CCCc1nc2ccccc2s1)NCc1ccccc1F | -20.2
49 | CC1Cc2cc(/C(O)=C3/C(=O)C(=O)N(CCN4CCOCC4)C3c3cccc(Cl)c3)ccc2O1 (stereo not shown) | 6.53
50 | NS(=O)(=O)c1ccc(CNC(=O)Cc2ccsc2)cc1 | 17.2
51 | Nc1nonc1-n1nnc(C(=O)N/N=C/c2ccc(Br)cc2)c1CSC1=NCCS1 | -3.36
52 | CCOC(=O)c1ccccc1NC(=O)CSc1nnc(C)c(=O)[nH]1 | 22.6
53 | O=C(COn1nnc2ccc(S(=O)(=O)N3CCOCC3)cc21)Nc1c(F)c(F)c(F)c(F)c1F | 15.7
54 | O=S(=O)(c1ccc2c(c1)nc(COc1ccc(Cl)cc1)n2CC1CCCO1)N1CCOCC1 (stereo not shown) | -65.2
55 | O=C1c2ccccc2C(=O)C12OC2c1ccc(Cl)cc1Cl (stereo not shown) | 4.07
56 | COC(=O)C(NC(=O)C(CC(C)C)NC(=O)C1CCC(C)CC1)C(C)C (stereo not shown) | -2.1
57 | C=CCn1c(-c2ccc([N+](=O)[O-])cc2)n[nH]c1=S | 14
58 | C[C@]12CCC3c4ccc(O)cc4CCC3C1CC/C2=N\N (stereo partly shown) | 9.03
59 | COc1cc(NC(=O)CCC(=O)O)nc(OC)n1 | 5.22
60 | Cc1ccc(CN2CCNC(=O)C2CC(=O)N(C)CCc2cnn(C)c2)cc1 (stereo not shown) | 17.2
61 | Cc1nn(C(C)C(=O)O)c2ccccc12 (stereo not shown) | 5.91
62 | CC1=NN(c2ccccc2)C(=O)/C1=C\c1cn(CCC#N)nc1-c1ccc(Cl)cc1 | 22
63 | Cc1ccccc1-n1c(SCC(=O)N/N=C/c2ccccc2OCC(=O)O)nc2ccccc2c1=O | 2.74
64 | O=C(CC12CC3CC(CC(Br)(C3)C1)C2)NC1=NCCS1 | -6.87
65 | COc1ccc(NC(=O)C(=O)c2cn(CC(=O)N3CCCC3)c3ccccc23)c(OC)c1 | 11.9
66 | C/[N+]([O-])=C\C1C(=O)CC(C)(C)CC1=O | 16.6

Row | Structure (SMILES) | hERG current change (%, negative = inhibition) at 10uM [%]
67 | CCc1noc(C)c1C(=O)N(CCOC)c1c(N)n(CC(C)C)c(=O)[nH]c1=O | 22.7
68 | O=C1NC(=Nc2cccc(O)c2)S/C1=C\c1cccc([N+](=O)[O-])c1 | 24
69 | C#CCOCCOCCOCCNc1nc(N2CCOCC2)nc(N2CCN(C(=O)[C@H]([C@@H](C)CC)n3cc([C@@H](N)CC(C)C)nn3)CC2)n1.Cl | 4.85
70 | CCc1ccccc1NC(=O)CSc1nc2n[nH]c(C)c2c(=N)n1-c1cccc(OC)c1 | -32.9
71 | O=C(c1cc(S(=O)(=O)N2CCOCC2)ccc1F)N(Cc1nnc(-c2ccccc2Cl)o1)C1CC1 | -22.8
72 | COc1ccc(S(=O)(=O)N2CCCC2)cc1NC(=O)c1ccccc1 | 13.9
73 | Cc1cc(C)cc(SCc2noc(C(=O)NC(C)C)c2C(=O)O)c1 | 33.6
74 | CC(=O)Nc1ccc(N2C(=O)CSC2c2ccccc2[N+](=O)[O-])cc1 (stereo not shown) | 37.4
75 | COc1cc(C)c(CN2CCN(S(=O)(=O)c3ccc(Cl)s3)CC2)cc1OC | -7.02
76 | COc1ccccc1CCNC(=O)c1c(C)nn(CC(C)C)c1Cl | -4.9
77 | C=CCNC(=S)NNC(=O)CCC(O)CCCCC (stereo not shown) | 16.4
78 | COC(=O)Cc1sc(-c2ccccn2)nc1-c1ccccc1 | -7.81
79 | O=C(NCCCN1CCN(c2ccc(F)cc2)CC1)c1cccc(N2CCCC2=O)c1 | -48.5
80 | CCOC(=O)c1c(C)[nH]c(C)c1C(=O)COC(=O)c1cccc(S(=O)(=O)N(CC)CC)c1 | -7.06
81 | Cc1ccc(F)cc1NCC(=O)Nc1ccc(Cl)cc1F | 8.63
82 | CCCCCc1ccc(-c2cn(Cc3ccc([N+](=O)[O-])cc3)nn2)cc1 | 9.08
83 | CCn1cc([N+](=O)[O-])c(C(=O)Nc2c(C)nn(Cc3c(F)c(F)c(F)c(F)c3F)c2C)n1 | -3.44
84 | Cc1nc(SCC(=O)NC(C)c2ccccc2)c2oc3ccccc3c2n1 (stereo not shown) | -12.1
85 | CCOC(=O)c1sc(NS(=O)(=O)c2cc(C)ccc2C)nc1C | 10.4
